Assay results from article PMC12040169 (PLOS Biology, 2025).
The other results are listed elsewhere or left out.

Tested on: T1, C. trachomatis L2/434/Bu expressing GFP (CTL2-GFP)
T1 construct: L2/434/Bu GFP intracellular growth in HeLa cells
Parameters: species or system HeLa; C. trachomatis total inclusion area by high-content imaging, normalised to DMSO
Conditions: total inclusion area; 28.5 h, 10 µM; inhibitor
Method in brief: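 Following bulk GFP and resorufin fluorescence reads, infected cells were fixed, Hoechst-stained and imaged on a high-content platform. Inclusion total area and number per well served as growth proxies; nuclei counts indicated host viability. MICs were derived as for the fluorescence assay.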

SMILES | % of control remaining
CCCNC(=O)Cn1nc(C)n2c(cc3ccsc32)c1=O [CBK284061] | 86.5989
c1ccc2c(CCN3CCN(c4nccnc4OC4CCCCC4)CC3)c[nH]c2c1 [CBK082847T] | 78.4188
CCN1CCC2CN(CCCC(c3ccc(F)cc3)c3ccc(F)cc3)CCN2C1=O (stereo not drawn) [CBK024996] | 40.3825
CCCCSc1nc(N)cc(N2CCCN(C(=O)C3CCCO3)CC2)n1 (stereo not drawn) [CBK307209] | 96.9802
Cc1ccc2[nH]c(Cc3ccc(NC(=O)c4nc5ccccc5n(C)c4=O)cc3)nc2c1 [CBK285802] | 91.7538
CNC(=O)c1sc2ccccc2c1C1CN(Cc2cn(C)c3ccc(F)cc23)CCO1 (stereo not drawn) [CBK285868] | 78.6733
CCn1nncc1CNC1CCc2[nH]c3ccc(C)cc3c2C1 (stereo not drawn) [CBK304749] | 52.8597
c1ccc(CNC2(Cc3cc(-c4ccccn4)on3)COC2)cc1 [CBK289643] | 94.3626
Cc1cc(-n2c(C)cc(C(=O)CSc3n[nH]c(=O)n3CC3CCCO3)c2C)no1 (stereo not drawn) [CBK295589] | 103.144
Cc1cc(C)nc(NC(=O)C(C)Oc2ccc(Cl)cc2C)n1 (stereo not drawn) [CBK268111] | 97.483
CC(=O)Nc1ccc(/C(C)=N/Nc2nc(N3CCCC3)nc(N3CCCC3)n2)cc1 [CBK021877] | 89.0763
CN1CCN(c2cccc(-c3ccsc3)n2)CC1 [CBK036916] | 89.386
CCCCCc1nnc(Nc2nc(C)cc(C)n2)[nH]1 [CBK288155] | 124.107
COc1cc2c(cc1OC)C(C)N(C(=O)CCC(=O)O)CC2 (stereo not drawn) [CBK269873] | 76.9819
O=C(CSc1nnc2[nH]c(=O)ccn12)NCc1ccccc1Cl [CBK287684] | 89.5366
O=C(CSc1nnc(-c2cccs2)n1-c1ccccc1)Nc1ccnc2ccccc12 [CBK267487] | 104.299
CCN(CCO)c1ccc(Nc2cc(-c3ccc(C#N)cc3)ncn2)cc1 [CBK037764] | 83.8668
Cc1ccc(C2(CN3CCC(NC(=O)CO)CC3)CCCC2)cc1 [CBK282628] | 106.663
COc1cc2c(cc1OC)C1c3ccccc3N(Cn3nnc4ccccc43)C(=O)N1CC2 (stereo not drawn) [CBK286193] | 83.0471
Cc1ccc(-n2c(C)cc(C(=O)CSc3n[nH]c(=O)n3C3CC3)c2C)cc1C [CBK296764] | 69.4933
Cc1cccc(-c2nc(=S)c3c(n2CCCN(C)C)CCCC3)c1 [CBK268406] | 87.7834

SMILES | % of control remaining
COc1ccccc1CN(C1CCNCC1)S(=O)(=O)c1c(Cl)cccc1Cl [CBK160807T] | 82.1242
CN(C)CCNC(=O)Cn1c(-c2ccc(F)cc2)cc2cccnc21 [CBK284820] | 64.2204
Clc1cccc(CNc2cncc(-c3cccs3)n2)c1 [CBK065609] | 104.882
CC(C)N1CC[C@H]2CN(C(=O)CCC(=O)O)CC[C@H]2CC1=O [CBK288789] | 96.1639
O=C(c1ccccc1-n1cccc1)N1CCCC1 [CBK149608] | 87.5798
Cc1c(C(=O)O)sc(S(=O)(=O)N2CCN(C(=O)Cc3ccccc3)CC2)c1C(=O)O [CBK297148] | 93.3909
O=C1CN(C(=O)NCC2CCCCC2)CCN1 [CBK155854] | 97.4861
CCOc1cc(F)ccc1NC(=O)CC1CCN(c2nc(C)cc(C)n2)CC1 [CBK285958] | 87.5534
CN1CCN(NC(=O)c2cccc(COc3ccccc3Cl)c2)CC1 [CBK265765] | 65.5794
NC(=S)Nn1c(CCC(=O)O)ccc1-c1ccccc1 [CBK265942] | 105.243
COc1ccccc1CNC(=O)c1cnc2scc(C)n2c1=O [CBK287293] | 80.2825
Cc1ccc(CS(=O)(=O)N2CCC3(CC2)CNC(=O)C3)cc1 [CBK283344] | 79.6694
Cc1ccc(OC(C)c2nc(-c3nonc3N)no2)cc1C (stereo not drawn) [CBK025698] | 88.5706
Nc1ccc(CCNC(=O)c2cnc(-c3cccc(C(F)(F)F)c3)c(-c3ccncc3)c2)cc1 [CBK037580] | 162.617
Fc1ccc(CSc2nc3ccccc3nc2C(F)(F)F)cc1 [CBK107199] | 104.263
CCn1ncc(CN2CCN(C(=S)Nc3ccccc3C(F)(F)F)CC2)c1C [CBK266968] | 122.8
COC(=O)c1cccc(Oc2nc(OC)cc(OC)n2)c1 [CBK092219] | 40.2118
Cn1c(SCC(=O)Nc2ccc(Br)cc2C(F)(F)F)nnc1-c1ccncc1 [CBK265905] | 62.6114
O=C(Cc1cccc(F)c1)N1CCC(O)(c2cccnc2F)CC1 [CBK284362] | 89.0114
COc1cc(/C=N/NC(=O)c2ccncc2)ccc1OC(=O)c1cccs1 [CBK262278] | 47.933
COc1cc(-c2nc(N)cc3ccccc23)cc(OC)c1OC [CBK085726] | 57.423

SMILES | % of control remaining
O=C(Nc1ccc(NC(=O)c2cc(O)nc3ccccc23)cc1)c1ccccc1 [CBK269722] | 101.886
O=C(N/N=C\c1ccc([N+](=O)[O-])o1)c1nc(-c2ccccc2)cc(-c2ccccc2)n1 [CBK261958] | 0.264
CC1(C)CC(=O)c2sc(NC(=O)c3ccc(OC(F)(F)F)cc3)nc2C1 [CBK144102] | 101.816
Nc1cc(NC(=O)c2cccc(C(=O)Nc3ccc(Cl)c(N)c3)c2)ccc1Cl [CBK261379] | 90.2887
CC1CC(NC(=S)NCc2csc3ccccc23)CC(C)(C)C1 (stereo not drawn) [CBK013824] | 58.0263
COc1ccc(Cl)cc1/C=C/C(=O)NCc1ccc(C(=O)O)cc1 [CBK286908] | 110.508
NC(=O)c1cc(C(=O)c2ccccc2F)c[nH]1 [CBK017284] | 36.5763
CCCCc1c(C)nc2ccc(OC)cc2c1SCCC(=O)O [CBK263888] | 110.753
Cn1c(CNC(=O)c2ncoc2-c2cccs2)nc2ccccc21 [CBK283985] | 91.5945
Cc1nc(C)c(C(=O)NCc2cccnc2N(C)C2CCCCC2)s1 [CBK306885] | 115.422
NC(=S)NNC(=O)Nc1ccccc1 [CBK261595] | 90.941
CS(=O)(=O)c1ccc(-c2c[nH]c([C@@H]3COCCN3Cc3ccc(C(=O)O)cc3)n2)cc1 [CBK289306] | 130.474
CS(=O)(=O)NCCCNc1ccc(C(F)(F)F)cc1[N+](=O)[O-] [CBK263741] | 67.7761
COc1ccc(NC(=O)c2nn(-c3nc4ccccc4o3)c3ccccc23)cc1 [CBK048492] | 88.1302
CSCCCNC(=O)N1CCCC(CO)C1 (stereo not drawn) [CBK156031] | 90.1683
CCOc1ccccc1-n1c(CCC(=O)O)ccc1-c1cccs1 [CBK264794] | 114.757
COc1cc(C(=O)N2CCC3(CC2)CC(=O)c2ccc(C)cc2O3)ccc1O [CBK166045] | 102.432
CCN(CC)C(=O)C1CCCN(C(=O)NCCCSC)C1 (stereo not drawn) [CBK156118] | 69.8199
CCNc1ncnc2c1oc1ccccc12 [CBK263298] | 60.0146
CCOC(=O)C1CCN(Cn2nc(-c3cccs3)oc2=S)CC1 [CBK295165] | 115.215
CCOC(=O)CN1N=C(C)C(Cc2c(Cl)cccc2Cl)(OC)C1=O (stereo not drawn) [CBK112646] | 76.8723

SMILES | % of control remaining
COc1ccc([C@H]2CN(C(=O)c3ccccc3)[C@@H]3CCN(Cc4ccccc4C)C[C@H]23)cc1 [CBK285583] | 72.9734
Nc1cccc(-c2cn(C[C@H]3CC4CCN3C[C@@H]4C(=O)NC3CCCCC3)nn2)c1 (stereo partly drawn) [CBK289083] | 107.264
CCCC(=O)Nc1ccc(OCc2nnc(C)o2)c(C(C)=O)c1 [CBK305943] | 80.4086
CS(=O)(=O)c1ccc(CN2C(=O)CC3(CCN(C(=O)Cc4cccs4)CC3)C2=O)cc1 [CBK155013] | 104.513
O=C(CN(c1cccc(Cl)c1)S(=O)(=O)c1ccccc1)NN=C1CCCCC1 [CBK262470] | 91.7474
Cc1cc(C)n2nc(C(=O)NCc3ccccn3)cc2n1 [CBK269015] | 86.4238
Nc1ncc([C@H]2C[C@@H](O)[C@@H](CO)O2)c(=O)[nH]1 [CBK201246] | 106.382
COc1ccc(C(CCN)c2ccccc2OC)cc1 (stereo not drawn) [CBK266125] | 53.5077
CCCNCCc1ccc(NC(=O)NCCc2ccccc2)cc1 [CBK173873T] | 87.3504
CN1C2CCC1CC(OC(=O)CN1CCCCC1)C2 (stereo not drawn) [CBK278166C] | 84.1134
Cc1cc(/C=C/C2=CCN(C)CC2)c(C)n1C1CC1 [CBK283858] | 105.909
COc1ccc(CC(=O)Nc2ccc(S(N)(=O)=O)cc2)cc1OC [CBK263429] | 106.172
Cc1nccn1CC1(O)CCN(Cc2cn(C)c3ccccc23)CC1 [CBK285017] | 98.3694
COc1ccc(-c2nc(NC(=O)c3ccncc3)cnc2-c2ccc(F)c(Cl)c2)cc1 [CBK036663] | 80.4339
COc1ccc(-c2cnc(N)c(NCC(C)(C)CO)n2)c(OC)c1OC [CBK063542] | 116.861
c1cncc(COc2nccnc2N2CCN(CCN3CCOCC3)CC2)c1 [CBK083141] | 91.6704
CCOc1ncccc1C(=O)NCc1ccc(NC(N)=O)cc1 [CBK279382] | 74.6949
O=C(O)c1ccc(COc2ccc(/C=C3\SC(=S)N(Cc4cccnc4)C3=O)cc2)cc1 [CBK264637] | 119.27
